Experimental findings from publication PMC8249575, “Phosphorylation and O-GlcNAcylation of the PHF-1 Epitope of Tau Protein Induce Local Conformational Changes of the C-Terminus and Modulate Tau Self-Assembly Into Fibrillar Aggregates” (Frontiers in Molecular Neuroscience, 2021) are described below.

First the molecules themselves.
B1: TauS262A (natural protein)
chain: not shown
notes: Tau, human, Tau2N4R (longest isoform of 441 residues), S262A; pET15b NcoI/XhoI cloning removes the polyhistidine tag; Used as monomer and, after 7 days with heparin and sonication, as seeds; also called TauS262A mutant; Tau seeds (as heparin-induced fibrils); source: E. coli BL21(DE3), purified (heating at 80°C, cation exchange)
B2: TauS262A-P (natural protein)
chain: not shown
modifications: phosphorylated at T153, T175, T181, S199, S202, T205, T212, T231, S235, S396 and S404; 12.3 ± 0.8 phosphate per Tau molecule
notes: Tau, human, Tau2N4R (longest isoform of 441 residues), S262A; also called Tau-P; source: E. coli BL21(DE3), purified; phosphorylated in vitro by CDK2/cyclin A3
B3: TauS262A-G/PP (natural protein)
chain: not shown
modifications: O-GlcNAc at S400, S412 and S413; phosphoserine at S404, S400 (ca. 36%) and S396 (ca. 40%) and CDK2/GSK3β sites of the proline-rich domain
notes: Tau, human, Tau2N4R (longest isoform of 441 residues), S262A; also called Tau-G/PP; source: E. coli BL21(DE3), purified; O-GlcNAcylated in vitro by ncOGT, then phosphorylated by CDK2/cyclin A3 and GSK3β
B4: TauS262A-G/P (natural protein)
chain: not shown
modifications: O-GlcNAc at S400, S412 and S413; phosphoserine at S404 (90%) and S396 (15%) and CDK2 sites of the proline-rich domain
notes: Tau, human, Tau2N4R (longest isoform of 441 residues), S262A; also called Tau-G/P; source: E. coli BL21(DE3), purified; O-GlcNAcylated in vitro by ncOGT, then phosphorylated by CDK2/cyclin A3
B5: TauS262A-PP (natural protein)
chain: not shown
modifications: phosphorylated at T153, T175, T181, S198, S199, S202, T205, S208, T212, T231, S235, S396 (88%), S400 (80%) and S404 (95%); 17.2 ± 0.8 phosphate per Tau molecule
notes: Tau, human, Tau2N4R (longest isoform of 441 residues), S262A; also called Tau-PP; source: E. coli BL21(DE3), purified; phosphorylated in vitro by CDK2/cyclin A3, then by GSK3β
B6: TauS262A-G (natural protein)
chain: not shown
modifications: O-GlcNAc at S400 (61% ± 2%), S412 (27% ± 1%) and S413 (47% ± 2%); 1.8 ± 0.3 GlcNAc per Tau molecule
notes: Tau, human, Tau2N4R (longest isoform of 441 residues), S262A; also called Tau-G; source: E. coli BL21(DE3), purified; O-GlcNAcylated in vitro by ncOGT, enriched by reverse phase HPLC

One data set concerns the molecule itself. Put plainly: seeded fibril formation (ThT fluorescence + negative-staining TEM); seeds: TauS262A 10 μM with heparin 2.5 μM for 7 days at 37°C, sonicated, diluted 10-fold in fresh monomeric Tau at 25 μM in 100 mM MES pH 6.9, 2 mM EGTA, 1 mM MgCl2, 20 mM NaF, 1 mM DTT, 100 μM ThT; 5 to 7 days at 37°C; TEM at end-point.
Conditions: not given
Regarding B1, the binding result was “binds”.

The next data set concerns the target B1. The data set is described as above. The note with it: both partners purified.
For B2, the binding result is recorded as “binds”.

On to B3, for which the binding result is reported as “binds”.

Consider B4, for which the binding result is recorded as “binds”.

For B5, the binding result is recorded as “binds”.

On to B6, for which the binding result is on record as “binds”.
